# According to PMC5892938:
# Some of the results follow. At the low end of the ranking, values are background and their order means little.
# Target: GST-SBP-SLBP (stem-loop binding protein) (UniProt Q14493)
# Experiment: targeted RNA Bind-n-Seq;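 note: DESeq read counts versus GST-SBP nonspecific binding control pulldown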
# Details: RBNS binding buffer: 25 mM Tris pH 7.5, 150 mM KCl, 3 mM MgCl2, 0.1% Tween, 0.5 mg/mL BSA, 1 mM DTT; 27 nM protein, 750 pM RNA pool; temperature not stated; high values mean tight binding
row,Sequence,binding signal (log2 fold change)
1,GGUCACGUCUCAAUCAACUCUUUCUCCAGGGAAACCCCUGGUAUAUUCAACAGCUCGCAGUCAAG,-0.0647
2,GGUCACGUCUCAAUCAACUCUUCCCCCAGGGAAAUCCCUGGUAAUGUCAACAGCUCGCAGUCAAG,0.109
3,GGUCACGUCUCAAUCAACUCAAUCUCCAGGGAAACCCCUGGUUUAUUCAACAGCUCGCAGUCAAG,-0.129
4,GGUCACGUCUCAAUCAACUCCCUCGAGGGGGGGAAAACCCCUUUACCCUCAUAUUCAACAGCUCGCAGUCAAG,-0.453
5,GGUCACGUCUCAAUCAACUCUAUCGAGGGGGGGAAAACCCCUUUACCCUCAUCGUCAACAGCUCGCAGUCAAG,-0.193
6,GGUCACGUCUCAAUCAACUCAUCGCCAGGAGUUUCCUCCUGUUAUCUCAACAGCUCGCAGUCAAG,0.00295
7,GGUCACGUCUCAAUCAACUCAAUUCCCAGGGAAAUCCCUGGCUUAUUCAACAGCUCGCAGUCAAG,0.0452
8,GGUCACGUCUCAAUCAACUCUUCUCCAGGAGUUUUCUCCUGUUAUGUCAACAGCUCGCAGUCAAG,0.0611
9,GGUCACGUCUCAAUCAACUCAACUCCAGGAGUUUUCUCCUGCUAUGUCAACAGCUCGCAGUCAAG,0.0483
10,GGUCACGUCUCAAUCAACUCAAUUCCCAGGGAAAUCCCUGGUUUAUUCAACAGCUCGCAGUCAAG,-0.125
11,GGUCACGUCUCAAUCAACUCUAUCUCAGGAGUUUUCUCCUGCUAUGUCAACAGCUCGCAGUCAAG,0.203
12,GGUCACGUCUCAAUCAACUCUAUCCCAGGAGUUUUCUCCUGUUUUCUCAACAGCUCGCAGUCAAG,0.172
13,GGUCACGUCUCAAUCAACUCUAUUCCAGGAGUUUUCUCCUGCUUUUUCAACAGCUCGCAGUCAAG,-0.0627
14,GGUCACGUCUCAAUCAACUCAUCUUCAGGAGUUUGCUCCUGUUAUCUCAACAGCUCGCAGUCAAG,-0.0237
15,GGUCACGUCUCAAUCAACUCUACUUCAGGAGUUUCCUCCUGUAAUUUCAACAGCUCGCAGUCAAG,-0.0717
16,GGUCACGUCUCAAUCAACUCUUCCUCAGGAGUUUUCUCCUGCUUACUCAACAGCUCGCAGUCAAG,0.157
17,GGUCACGUCUCAAUCAACUCAAUCCCCAGGGAAACCCCUGGCUUUUUCAACAGCUCGCAGUCAAG,0.176
18,GGUCACGUCUCAAUCAACUCACAUGAGGGGGGGAAAACCCCUUUACCCUCUACAUCAACAGCUCGCAGUCAAG,-0.45
19,GGUCACGUCUCAAUCAACUCUCUAGAGGGGGGGAAAACCCCUUUUCCCUCAAAAUCAACAGCUCGCAGUCAAG,-0.174
20,GGUCACGUCUCAAUCAACUCCCAAGAGGGGGGGAAAACCCCUUUACCCUCCACGUCAACAGCUCGCAGUCAAG,0.0362
21,GGUCACGUCUCAAUCAACUCAGUCUCAGGAGUUUCCUCCUGCUUUCUCAACAGCUCGCAGUCAAG,-0.147
22,GGUCACGUCUCAAUCAACUCUACUUCCAGGGAAACCCCUGGCGUUUUCAACAGCUCGCAGUCAAG,-0.0329
23,GGUCACGUCUCAAUCAACUCAGUUCCAGGAGUUUCCUCCUGUAUUUUCAACAGCUCGCAGUCAAG,0.133
24,GGUCACGUCUCAAUCAACUCUUAAGAGGGGGGGAAAACCCCUUUGCCCUCCAAAUCAACAGCUCGCAGUCAAG,-0.0684
25,GGUCACGUCUCAAUCAACUCUAUCCCCAGGGAAAGCCCUGGUUAAUUCAACAGCUCGCAGUCAAG,0.217

row,Sequence,binding signal (log2 fold change)
1,GGUCACGUCUCAAUCAACUCACAAGAGGGGGGGAAAACCCCUUUGCCCUCAAAAUCAACAGCUCGCAGUCAAG,-0.042
2,GGUCACGUCUCAAUCAACUCUUUUUCAGGAGUUUCCUCCUGCUUACUCAACAGCUCGCAGUCAAG,-0.16
3,GGUCACGUCUCAAUCAACUCCUAAGAGGGGGGGAAAACCCCUUUACCCUCAACAUCAACAGCUCGCAGUCAAG,0.0781
4,GGUCACGUCUCAAUCAACUCUACUCCCAGGGAAAACCCUGGUAUACUCAACAGCUCGCAGUCAAG,-0.0826
5,GGUCACGUCUCAAUCAACUCCUCAGAGGGGGGGAAAACCCCUUUGCCCUCAUCAUCAACAGCUCGCAGUCAAG,-0.176
6,GGUCACGUCUCAAUCAACUCCCAAGAGGGGGGGAAAACCCCUUUACCCUCAUAAUCAACAGCUCGCAGUCAAG,-0.264
7,GGUCACGUCUCAAUCAACUCUUCUUCCAGGGAAAGCCCUGGUUUACUCAACAGCUCGCAGUCAAG,-0.169
8,GGUCACGUCUCAAUCAACUCUAUCUCAGGAGUUUACUCCUGUUUUCUCAACAGCUCGCAGUCAAG,0.272
9,GGUCACGUCUCAAUCAACUCAGUCCCCAGGGAAAACCCUGGUAUAUUCAACAGCUCGCAGUCAAG,-0.102
10,GGUCACGUCUCAAUCAACUCCCAAGAGGGGGGGAAAACCCCUUUGCCCUCAACAUCAACAGCUCGCAGUCAAG,-0.104
11,GGUCACGUCUCAAUCAACUCUUAAGAGGGGGGGAAAACCCCUUUGCCCUCAUUCUCAACAGCUCGCAGUCAAG,-0.114
12,GGUCACGUCUCAAUCAACUCAUUCCCCAGGGAAAGCCCUGGCUAUCUCAACAGCUCGCAGUCAAG,0.129
13,GGUCACGUCUCAAUCAACUCCUAAGAGGGGGGGAAAACCCCUUUGCCCUCAAAUUCAACAGCUCGCAGUCAAG,-0.483
14,GGUCACGUCUCAAUCAACUCAUUCCCCAGGGAAAUCCCUGGCUAUCUCAACAGCUCGCAGUCAAG,0.0746
15,GGUCACGUCUCAAUCAACUCAACUUCCAGGGAAACCCCUGGCUAUCUCAACAGCUCGCAGUCAAG,-0.0646
16,GGUCACGUCUCAAUCAACUCAUCCGCAGGAGUUUCCUCCUGGUAUCUCAACAGCUCGCAGUCAAG,0.095
17,GGUCACGUCUCAAUCAACUCUUCCCCCAGGGAAAGCCCUGGUUUAUUCAACAGCUCGCAGUCAAG,-0.0573
18,GGUCACGUCUCAAUCAACUCUUCCCCAGGAGUUUACUCCUGUAAUGUCAACAGCUCGCAGUCAAG,0.0804
19,GGUCACGUCUCAAUCAACUCAUAAGAGGGGGGGAAAACCCCUUUACCCUCAUCUUCAACAGCUCGCAGUCAAG,-0.414
20,GGUCACGUCUCAAUCAACUCAUCCUCAGGAGUUUACUCCUGCAAACUCAACAGCUCGCAGUCAAG,0.0302
21,GGUCACGUCUCAAUCAACUCAAUUUCCAGGGAAACCCCUGGCUUUUUCAACAGCUCGCAGUCAAG,-0.109
22,GGUCACGUCUCAAUCAACUCUAUAGAGGGGGGGAAAACCCCUUUACCCUCCACUUCAACAGCUCGCAGUCAAG,-0.247
23,GGUCACGUCUCAAUCAACUCUAUUUCAGGAGUUUCCUCCUGCAAACUCAACAGCUCGCAGUCAAG,0.0821
24,GGUCACGUCUCAAUCAACUCUUUUUCCAGGGAAAUCCCUGGUUAUGUCAACAGCUCGCAGUCAAG,-0.013
25,GGUCACGUCUCAAUCAACUCAAUCCCAGGAGUUUUCUCCUGCUUAUUCAACAGCUCGCAGUCAAG,0.12

row,Sequence,binding signal (log2 fold change)
1,GGUCACGUCUCAAUCAACUCCCUAGAGGGGGGGAAAACCCCUUUGCCCUCAUCAUCAACAGCUCGCAGUCAAG,0.00487
2,GGUCACGUCUCAAUCAACUCUAUCCCCAGGGAAACCCCUGGUUAACUCAACAGCUCGCAGUCAAG,0.253
3,GGUCACGUCUCAAUCAACUCAGAAGAGGGGGGGAAAACCCCUUUACCCUCCACAUCAACAGCUCGCAGUCAAG,-0.129
4,GGUCACGUCUCAAUCAACUCUACUCCAGGAGUUUCCUCCUGCAAUCUCAACAGCUCGCAGUCAAG,0.261
5,GGUCACGUCUCAAUCAACUCUAUCUCCAGGGAAAACCCUGGCAUUUUCAACAGCUCGCAGUCAAG,-0.0332
6,GGUCACGUCUCAAUCAACUCAUUCUCCAGGGAAAGCCCUGGUAAACUCAACAGCUCGCAGUCAAG,-0.0914
7,GGUCACGUCUCAAUCAACUCACACGAGGGGGGGAAAACCCCUUUGCCCUCAUAUUCAACAGCUCGCAGUCAAG,0.0682
8,GGUCACGUCUCAAUCAACUCCCUCGAGGGGGGGAAAACCCCUUUACCCUCAUCCUCAACAGCUCGCAGUCAAG,-0.196
9,GGUCACGUCUCAAUCAACUCUUCCCCAGGAGUUUCCUCCUGCAAUUUCAACAGCUCGCAGUCAAG,-0.00681
10,GGUCACGUCUCAAUCAACUCAUCUUCCAGGGAAAACCCUGGUUAACUCAACAGCUCGCAGUCAAG,0.0985
11,GGUCACGUCUCAAUCAACUCAUCCUCCAGGGAAAACCCUGGCAUUCUCAACAGCUCGCAGUCAAG,-0.0339
12,GGUCACGUCUCAAUCAACUCAAUUUCAGGAGUUUGCUCCUGCAUUUUCAACAGCUCGCAGUCAAG,0.202
13,GGUCACGUCUCAAUCAACUCUACUUCAGGAGUUUACUCCUGUUAUUUCAACAGCUCGCAGUCAAG,-0.34
14,GGUCACGUCUCAAUCAACUCUACGCCAGGAGUUUUCUCCUGUAAUCUCAACAGCUCGCAGUCAAG,0.103
15,GGUCACGUCUCAAUCAACUCAAUUUCCAGGGAAAGCCCUGGCUAACUCAACAGCUCGCAGUCAAG,-0.0418
16,GGUCACGUCUCAAUCAACUCUUCUUCCAGGGAAACCCCUGGUUUUUUCAACAGCUCGCAGUCAAG,-0.329
17,GGUCACGUCUCAAUCAACUCAGUCCCCAGGGAAAUCCCUGGCAUUUUCAACAGCUCGCAGUCAAG,-0.0492
18,GGUCACGUCUCAAUCAACUCAAUCCCAGGAGUUUCCUCCUGCAAUCUCAACAGCUCGCAGUCAAG,0.178
19,GGUCACGUCUCAAUCAACUCAGUCUCCAGGGAAAACCCUGGUUAAUUCAACAGCUCGCAGUCAAG,-0.165
20,GGUCACGUCUCAAUCAACUCAAUAGAGGGGGGGAAAACCCCUUUACCCUCAUUAUCAACAGCUCGCAGUCAAG,0.128
21,GGUCACGUCUCAAUCAACUCAAUUUCCAGGGAAAGCCCUGGCAUACUCAACAGCUCGCAGUCAAG,-0.0457
22,GGUCACGUCUCAAUCAACUCUUUCUCCAGGGAAACCCCUGGUAUACUCAACAGCUCGCAGUCAAG,0.258
23,GGUCACGUCUCAAUCAACUCAUCUCCAGGAGUUUGCUCCUGUAUUCUCAACAGCUCGCAGUCAAG,0.0375
24,GGUCACGUCUCAAUCAACUCAAUCGAGGGGGGGAAAACCCCUUUGCCCUCAUCUUCAACAGCUCGCAGUCAAG,0.419
